Measurements taken from PubChem BioAssay AID485364 (National Center for Advancing Translational Sciences (NCATS), 2010).
The campaign covered roughly 360,000 compounds. About 11,000 (3.1%) were called active. This list was built around the results that the source calls inconclusive (neither active nor inactive); the mix of calls is not that of the screen. Calls come from the whole dose curve; as a rule, active = well fitted inhibition curve with a large enough effect; inconclusive = small, poorly fitted or top-dose-only effect; inactive = no such curve, though single readings can be large or run the other way. No potency is given beside an inconclusive call; the fits are too rough.

The molecules below were run against Schistosoma mansoni thioredoxin glutathione reductase (TGR) (UniProt Q962Y6) (assay: qHTS Assay for the Inhibitors of Schistosoma Mansoni Peroxiredoxins). Conditions: purified TGR, DTNB reduction, TNB absorbance 405 nm; activity change, negative = inhibition: at 114 µM (top of the series) unless noted.
Summary of the method: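 TGR 20 nM + NADPH 100 uM (dispensed conc.), cpd preinc 15 min RT; start with NADPH (500 uM addition) then DTNB (15 mM addition). Kinetic TNB absorbance, 405 nm filter. Four-parameter Hill fit across titration.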
% is set by controls: 0 for no effect and ±100 for the full control effect; potency is the fitted concentration of half-maximal effect; tags give direction and shape of the fitted curve.
Note: nearly all actives have a fitted effect of over 60% in size.

Row | SMILES | Potency | activity change, negative = inhibition
1 | COCc1ccc(CN2CCCC(CO)(Cc3cccc(OC)c3)C2)o1 (stereo not drawn) | inconclusive [inhibitor, full curve] | 
2 | CCc1ccc(/C=C/C(=O)c2c(C)cc(C)[nH]c2=O)cc1 | inconclusive [inhibitor, full curve] | 
3 | O=C(NCc1ccco1)c1ccc(F)c(S(=O)(=O)N2CCCCC2)c1 |  | inactive: -27%
4 | Cc1cccc(Nc2nc(N)c([N+](=O)[O-])c(N3CCCC(C)C3)n2)c1 (stereo not drawn) |  | inactive: -11.5%
5 | Fc1cccc(NC(=S)NCc2ccccc2Cl)c1 | inconclusive [inhibitor, full curve] | 
6 | O=C(O)C(CO)(c1ccccc1)c1ccccc1 |  | inactive: 0%
7 | O=C(Nc1ccc(OC(F)(F)F)cc1)Nc1cccc([N+](=O)[O-])c1 |  | inactive: -10%
8 | Cc1nc2ccccc2c(=O)n1-c1ccc([N+](=O)[O-])cc1 | inconclusive [inhibitor, single point] | 
9 | COc1ccc(-n2c(-c3ccco3)nc3c(cnn3-c3ccccc3Cl)c2=O)cc1 | inconclusive [inhibitor, single point] | 
10 | CN(NC1CC(=O)N(c2ccccc2)C1=O)c1ccccc1 (stereo not drawn) | inconclusive [inhibitor, partial curve] | 
11 | O=c1c2ccccc2nc2n1CCN2Cc1ccc(Cl)cc1 |  | inactive: -3.25%
12 | CNC(=S)Nc1ccc([N+](=O)[O-])cc1 | inconclusive [inhibitor, partial curve] | 
13 | O=C(NCCCc1ccccc1)c1ccccc1 | inconclusive [inhibitor, full curve, poor fit] | 
14 | Oc1ccc2ccccc2c1N=Nc1ccc(F)cc1 | inactive | 
15 | Cn1c(N)c(C(=O)/C=C/c2ccccc2)c(=O)[nH]c1=O |  | inactive: -10.4%
16 | O=C(NCC(c1ccco1)S(=O)(=O)c1cccs1)c1ccc(F)c(F)c1 (stereo not drawn) | active: 15.8 µM | 
17 | O=C(O)c1ccccc1-n1ncc2c1/C(=C/c1ccc(Cl)cc1)CC2 | active: 14.1 µM | 
18 | O=C(C1CCCO1)N1CCN(C(c2ccccc2)c2ccccc2)CC1 (stereo not drawn) | inconclusive [inhibitor, partial curve] | 
19 | O=C(NC1(C(F)(F)F)NC(=O)N(Cc2ccco2)C1=O)c1cccnc1 (stereo not drawn) | active: 35.5 µM | 
20 | O=C(O)CCc1ccc(-c2ccccc2)n1Cc1ccco1 | active: 31.6 µM | 
21 | CCOC(=O)CSc1nc(C2CC2)cc(-c2ccc(Cl)cc2)c1C#N |  | inactive: 3.23%
22 | COc1ccc(Nc2oc(COc3ccccc3F)nc2C#N)cc1 | inconclusive [inhibitor, full curve] | 
23 | COc1ccc(NC(=O)c2cc(-c3ccco3)on2)cc1OC | inconclusive [inhibitor, partial curve, poor fit] | 
24 | O=C(Oc1c(Cl)cc(Cl)c2ccccc12)N1CCCC1 | inconclusive [inhibitor, partial curve] | 

Row | SMILES | Potency | activity change, negative = inhibition
25 | COC/C=C/C1=CC2=CC(=O)C(C)(OC(=O)c3cnc4ccccc4n3)C(=O)C2=CN1c1ccc(CO)cc1 (stereo not drawn) | active: 44.7 µM | 
26 | O=C(NCc1ccco1)c1cc(S(=O)(=O)N2CCOCC2)ccc1Br | inconclusive [inhibitor, partial curve] | 
27 | C/C=C/C=N/NC(=O)CN(c1ccc(Br)cc1)S(=O)(=O)c1ccccc1 | inconclusive [inhibitor, partial curve] | 
28 | CN1CCN(Cc2c(O)ccc3cc(Br)ccc23)CC1 | active: 3.55 µM | 
29 | O=C(CSc1nncs1)NCCNC(=O)CSc1nncs1 | inconclusive [inhibitor, partial curve] | 
30 | COC(=O)c1cccc(N2C(=O)C(Cl)=C(N3CCOCC3)C2=O)c1 | inconclusive [inhibitor, partial curve] | 
31 | CCOC(=O)/C=C(\C)Sc1cc(O)c2ccccc2c1O | active: 0.794 µM | 
32 | CC(C)c1onc(C(=O)Nc2sc3c(c2C#N)CCC3)c1[N+](=O)[O-] | inconclusive [inhibitor, partial curve] | 
33 | CCOC(=O)CN1C(=O)/C(=C2\SC(=S)N(NC(=O)c3cccnc3)C2=O)c2ccccc21 | inconclusive [inhibitor, partial curve] | 
34 | Cc1c(C(=O)O)oc2c1-c1nn(Cc3ccc(Cl)cc3)cc1CC2 | inconclusive [inhibitor, partial curve] | 
35 | CCN(CC)C1CC(=O)N(c2cccc(C)c2)C1=O (stereo not drawn) | active: 3.55 µM | 
36 | O=C(Nc1nc2ccccc2s1)c1c(F)cccc1Cl |  | inactive: 3.46%
37 | O=C(Nc1cccc(Cl)c1)N(CCCN1CCOCC1)Cc1ccccc1F |  | inactive: 7.21%
38 | O=C(O)CC(CCc1ccccc1)OC1OC(CO)C(O)C(O)C1O (stereo not drawn) | inconclusive [inhibitor, partial curve] | 
39 | Cc1ccc(Cn2c(NCCc3ccccc3)nc3c2c(=O)n(C)c(=O)n3C)cc1 |  | inactive: -1.18%
40 | COc1ccc(OC)c(NC(=O)[C@@]2(CC(=O)O)CC(/C=C/c3ccccc3)=NO2)c1 | inconclusive [inhibitor, partial curve] | 
41 | CC1(C)CC(=O)C(C(C2=C(O)CC(C)(C)CC2=O)c2cccnc2)C(=O)C1 (stereo not drawn) | inconclusive [inhibitor, partial curve] | 
42 | O=C(COc1ccc(Cl)cc1)N(Cc1ccco1)C1CCS(=O)(=O)C1 (stereo not drawn) | inconclusive [inhibitor, partial curve] | 
43 | Cc1ncc(CO)c(/C=N/N=C/c2ccccc2O)c1O |  | inactive: -16%
44 | O=C(COC(=O)c1ccccn1)Nc1cc(Cl)ccc1Cl |  | inactive: -6.82%
45 | S=C(Nc1ccc2c(c1)OCO2)Nc1ccccc1Cl | inconclusive [inhibitor, partial curve] | 
46 | COc1cccc(NC(=O)CSc2nc(-c3ccccc3Cl)nc3c2Cc2c(CO)cnc(C)c2O3)c1 | inconclusive [inhibitor, partial curve] | 
47 | COC(=O)CCCC1=CC2=C(c3ccccc3)C(=O)C(C)(OC(=O)C3CCCC3)C(=O)C2=CN1C1CCCCC1 (stereo not drawn) | active: 20 µM | 
48 | CCN1C/C(=C/c2sccc2C)c2nc3ccccc3c(C(=O)O)c2C1 | inconclusive [inhibitor, partial curve] | 
